Experimental data: ChEMBL document CHEMBL4888484, “Replenishing the malaria drug discovery pipeline: Screening and hit evaluation of the MMV Hit Generation Library 1 (HGL1) against asexual blood stage Plasmodium falciparum ,using a nano luciferase reporter read-out” (2022)
In all, about 150,000 compounds went through this assay and about 540 (0.36%) showed an effect of 50% or more. Some of the results follow.

Each molecule was assayed on Plasmodium falciparum (assay: Primary screen in NF54 nanoGlo assay, in single point, at 2uM, 72h; a lower Z score goes with more inhibition). Conditions: timepoint 72 hour.
Assay type: functional, Erythrocyte

Row | Compound | % Inhibition [%] | Z score
1 | Cc1cccc(OCCNCCO)c1C | -10 | 1.31
2 | CCN(C[C@H]1CCCO1)C(=O)c1c[nH]c2ncccc12 | -3 | 0.28
3 | CCOc1ccc(Cl)cc1CN(C)C(=O)[C@@H]1CCCCN1C | -12 | 1.18
4 | CN1C(=O)[C@H](CC(=O)N(Cc2ccsc2)C2CCCC2)N(C)C1=O | -5 | 0.83
5 | O=C(NC[C@H]1CCCN(c2ccncc2)C1)c1ccon1 | 6 | -0.86
6 | COCCCNC(=O)CN(C)C(=O)[C@H](C)Oc1ccc(F)cc1 | -2 | 0.44
7 | CC(=O)c1cccc(OS(=O)(=O)c2ccc3c(c2)CCN3C(C)=O)c1 | -10 | 0.93
8 | Cc1nnsc1C(=O)N1CC[C@H](O)[C@@H]1C | -9 | 1.01
9 | Cc1nccc(OC2CCN(C(=O)c3ccoc3)CC2)n1 | -7 | 1.36
10 | NC(=O)NCC1CCCC(C(F)(F)F)C1 (stereo not drawn) | -4 | 0.54
11 | CCn1nc(-c2ccc(OC)c(S(=O)(=O)N(C)c3ccccc3)c2)c2c(c1=O)CCCC2 | -5 | 0.76
12 | N#Cc1nc(C2CC2c2ccccc2)oc1N1CCN(C(c2ccccc2)c2ccccc2)CC1 (stereo not drawn) | -18 | 2.44
13 | Cc1csc(N(C)C(=O)c2cccc(=O)n2CCOc2ccccc2Cl)n1 | 1 | -0.15
14 | Cc1cccc2nc(C(=O)N3CCOC[C@@H]3CC(=O)N3CCCC3)c(F)n12 | 3 | -0.54
15 | CC1(C)[C@@H](O)CCN1C(=O)c1cscc1Cl | -5 | 0.96
16 | CC(C)CNc1nc(C(=O)Nc2cccnc2)cs1 | -17 | 1.47
17 | Cc1c(NC(=O)c2cnn(-c3cccc(Cl)c3)c2C)cccc1C(=O)N1CCCC1 | -1 | 0.18
18 | CN(C)c1cncc(NCC[C@H]2CCCOC2)n1 | -9 | 1.65
19 | O=C(CCC(=O)c1ccccc1)NC1CCC(O)CC1 (stereo not drawn) | 35 | -0.88
20 | Brc1cc2c(cc1CN1CCC[C@H](Cn3cncn3)C1)OCCCO2 | -4 | 0.38
21 | O=C(Nc1nnc(CCS(=O)(=O)c2ccccc2)o1)c1ccco1 | -8 | 1.57

Row | Compound | % Inhibition [%] | Z score
22 | CCN1C(=O)c2c(C(=O)NCc3ccc(OC(C)C)cc3)ncn2C[C@@]1(C)C(=O)NC1CCCC1 | -10 | 1.94
23 | CNS(=O)(=O)CC(=O)Nc1ccc2[nH]c(OC)nc2c1 | -4 | 0.86
24 | CCN1CC[C@@]2(CCC1=O)CN(C(=O)c1ccc(COC)s1)CCN2C | -2 | 0.35
25 | CCC(=O)Oc1ccc(CNC(C)(C)C)cc1 | -8 | 1.3
26 | Nn1c(CCOC(=O)c2ccccc2)nnc1CCOC(=O)c1ccccc1 | 3 | -0.49
27 | c1ccc(Cn2c(-c3ccccc3)cc3c2[C@@H](c2ccccc2)Oc2ccccc2-3)cc1 | -3 | 0.46
28 | CC(C)(C)OC(=O)N1CCC[C@H]1C(=O)N1CCCCCC1 | -15 | 1.75
29 | Cc1ncc(C(=O)NCC(C)(C)N2CCOCC2)c(O)c1Cl | -8 | 0.83
30 | CCn1cc(CNC(=O)c2cc(C3CC3)nc3onc(-c4ccc(OC)cc4)c23)cn1 | 31 | -3.5
31 | C=CCOC1CCN(C(=O)CC(C)c2c(C)n[nH]c2C)C1 (stereo not drawn) | -13 | 1.68
32 | Cc1nccn1Cc1nnc(C2CCN(c3cccc(C#N)n3)CC2)n1C | -12 | 1.16
33 | O=C(Nc1ccccc1Cl)N1CCC(C2(O)CC2)CC1 | 5 | -0.57
34 | O=C1CCCN1Cc1ccc(Nc2ncnc3c2CCC3)cc1 | -13 | 1.81
35 | O=C(COc1ccc(-c2ccccc2)cc1)Nn1cnnc1 | -9 | 1.04
36 | O=C(c1cc(F)cc(F)c1)N1C[C@@H](CO)[C@H](c2ccncc2)C1 | 1 | -0.19
37 | O=C1OC[C@H]2CN(Cc3cc4c(cc3Cl)OCO4)CCN12 | 0 | 0
38 | O=C(Nc1nc(-c2ccc3c(c2)OCCO3)cs1)c1cccc(-n2cnnn2)c1 | -15 | 2.17
39 | Cc1nc2n(n1)C[C@@H](C(=O)N(CC(F)F)c1ccccc1)CC2 | -11 | 1.58
40 | CCn1c(C)ccc(C(=O)N2C[C@@H]3CC[C@H]2CN(S(=O)(=O)N(C)C)C3)c1=O | -4 | 0.71
41 | O=C(Nc1ccc(Cl)cc1)c1cc2n(n1)CCCN(Cc1ccc(F)cc1)C2=O | -12 | 1.39
42 | CN(CCc1nc2ccccc2[nH]1)Cc1cc(=O)[nH]c(=O)[nH]1 | 3 | -0.6

Row | Compound | % Inhibition [%] | Z score
43 | CC(NC(=O)C(C)(C)C)C(=O)N(C)C1CCN(C)CC1C (stereo not drawn) | -5 | 0.58
44 | Cc1ccc(CS(=O)(=O)N(C)Cc2nnc[nH]2)cc1F | -7 | 1.13
45 | COc1ccc(C(N)CC(O)Cc2cc(OC)c3c(c2OC)OCO3)cc1 (stereo not drawn) | 5 | -0.62
46 | NCc1cccc(C(=O)N2CCc3cc4ccc3[C@@H]2c2cccc(c2)OCCCNC(=O)c2cc(ccc2O)O4)c1 | 86 | -13.81
47 | Cc1nccn1C1(C(=O)O)CCN(C(=O)c2cc3ccccc3[nH]2)CC1 | -6 | 0.73
48 | N[C@H]1CC[C@@H](NC(=O)c2ccc3nc(-c4ccc(F)cc4)cn3c2)CC1 | -1 | 0.13
49 | COc1ccc(NC(=O)c2nnc([C@H]3CCCN(S(=O)(=O)c4c(C)n[nH]c4C)C3)s2)cc1 | -3 | 0.46
50 | CCc1cc(C(=O)Nc2ncc(C)[nH]2)[nH]n1 | -3 | 0.36
51 | CN(C)c1ncc(NS(=O)(=O)c2ccc3c(c2)OCCO3)c(N(C)C)n1 | -15 | 1.92
52 | Cc1cc(CNC(=O)Nc2cnc(N3CCCC[C@@H]3C)c(C)c2)on1 | 9 | -1.19
53 | CC(C)(NC(=O)C1CCc2cncn2C1)C(O)C(F)(F)F (stereo not drawn) | -6 | 0.72
54 | O=C1CCc2cc(S(=O)(=O)N3CCC[C@H]3C(=O)NC3CCCCCCC3)ccc2N1 | 5 | -0.58
55 | CC(=O)Nc1ccc(OC(=O)CCOc2ccc(F)cc2)cc1 | -9 | 1.41
56 | OC1(CNc2nc3ccccc3s2)CCOCC1 | -4 | 0.74
57 | O=C([C@@H]1CCCO1)N1CCCc2sccc2C1 | -17 | 1.56
58 | COC(=O)CN1CCCN(c2nc3ccccc3o2)CC1 | -18 | 2.32
59 | O=C(Cc1c[nH]c2ccccc12)N1CCN(c2cc(-n3cncn3)ncn2)CC1 | -11 | 1.77
60 | CCn1c(CN2CCC[C@H](c3ccnn3C)C2)nc2c(F)cccc21 | -11 | 2.25
61 | CCCOc1nc2ccccc2nc1N1CCC[C@H](C(=O)NCc2ccc(F)cc2)C1 | -6 | 1.19
62 | Cc1ncn(CCC2CCOCC2)c1C | 1 | -0.11
63 | CC(=O)c1cccc(NC(=O)[C@H]2CC23CCOCC3)c1 | 10 | -1.61

Row | Compound | % Inhibition [%] | Z score
64 | Cc1ccc(Br)c(C(=O)N[C@@]2(CCO)CCOC2)n1 | -1 | 0.25
65 | COc1ccc(OC)c(C2NC(c3cc(OC)ccc3OC)C(C)C(O)(c3ccc(F)cc3)C2C)c1 (stereo not drawn) | 9 | -1.19
66 | Nc1c2c(-c3ccc(F)cc3)nc(NCCN3CCCCC3)nc2nn1-c1ccc(Cl)cc1 | -19 | 1.69
67 | O=C(CNc1cc(Cl)ccc1N1CCC(CO)CC1)N1CCOCC1 | -9 | 1.65
68 | Cc1ccc2cc1Oc1cccc(c1)CO[C@H]1CCN(C(=O)CCc3nncn3C)C[C@H]1NC(=O)CN(C)C2=O | -16 | 2.04
69 | COc1cc(OC)cc(C(=O)N2CCCCC[C@H]2c2nnc(C)o2)c1 | -6 | 1.14
70 | CCN(C[C@H](C)C#N)C(=O)CNc1ccc(-c2nccc(C)n2)cc1 | -5 | 0.98
71 | CCn1cnc2c(N3CCC=C(c4cccnc4)C3)ncnc21 | -7 | 0.74
72 | COc1ccc([C@@H](O)Cn2cnc(C(=O)NCCC3=CCCCC3)n2)cc1 | 2 | -0.21
73 | O=C(NCC1CCC(O)C1)c1ccc(B(O)O)cc1 (stereo not drawn) | -15 | 1.91
74 | CC1CC(C)CN(C(=O)c2ccc3nnnn3c2)C1 (stereo not drawn) | -4 | 0.33
75 | CCn1cc(S(=O)(=O)N2CCCN(C)c3cc(F)ccc32)cn1 | -8 | 1.27
76 | CN(C1(C(N)=O)CCCC1)S(=O)(=O)c1cccnc1 | -2 | 0.31
77 | CC[C@H](C)N(CCO)S(=O)(=O)c1cc(C(=O)NC)n(C)c1 | -13 | 1.11
78 | NC(=O)NCCC(=O)N(C1CCCCC1)C1CCCC1 | -5 | 0.69
79 | O=C1CN(C(=O)[C@@H]2CC=CCC2)c2ccccc2N1 | -15 | 2.79
80 | CC[C@H](NC(=O)c1c(C)c(C)c(C)[nH]c1=O)c1ncnn1C | 11 | -1.38
81 | COc1cc(NC(=O)Cc2ccc3nc(NC(C)=O)sc3c2)cc(OC)c1 | -5 | 0.47
82 | Cc1ccccc1C(=O)N1[C@H](C(=O)NCC(C)C)COC12CCN(C(=O)C(C)(C)C)CC2 | -1 | 0.11
83 | CN1C[C@@H](C(=O)NCC=Cc2ccccc2)CC1=O | -4 | 0.39
84 | CCN=C(NCc1ccccc1COC)NC[C@H](C)N1CCOCC1 | 16 | -1.41
